Experimental data: article PMC4336329 (PLoS ONE, 2015)
Out of some 310,000 compounds screened, about 14,000 (4.5%) showed an effect of 50% or more. Effects have a minus sign here. Some of the results follow.

target: human ether-à-go-go-related gene (hERG) potassium channel (human, UniProt Q12809); experiment: primary screen, population patch clamp on CHO cells stably expressing hERG
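Note: peak tail current of the secondary pulse compared with the same well before compound.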

human ether-à-go-go-related gene (hERG) potassium channel, sequence (Q12809 whole entry, looked up): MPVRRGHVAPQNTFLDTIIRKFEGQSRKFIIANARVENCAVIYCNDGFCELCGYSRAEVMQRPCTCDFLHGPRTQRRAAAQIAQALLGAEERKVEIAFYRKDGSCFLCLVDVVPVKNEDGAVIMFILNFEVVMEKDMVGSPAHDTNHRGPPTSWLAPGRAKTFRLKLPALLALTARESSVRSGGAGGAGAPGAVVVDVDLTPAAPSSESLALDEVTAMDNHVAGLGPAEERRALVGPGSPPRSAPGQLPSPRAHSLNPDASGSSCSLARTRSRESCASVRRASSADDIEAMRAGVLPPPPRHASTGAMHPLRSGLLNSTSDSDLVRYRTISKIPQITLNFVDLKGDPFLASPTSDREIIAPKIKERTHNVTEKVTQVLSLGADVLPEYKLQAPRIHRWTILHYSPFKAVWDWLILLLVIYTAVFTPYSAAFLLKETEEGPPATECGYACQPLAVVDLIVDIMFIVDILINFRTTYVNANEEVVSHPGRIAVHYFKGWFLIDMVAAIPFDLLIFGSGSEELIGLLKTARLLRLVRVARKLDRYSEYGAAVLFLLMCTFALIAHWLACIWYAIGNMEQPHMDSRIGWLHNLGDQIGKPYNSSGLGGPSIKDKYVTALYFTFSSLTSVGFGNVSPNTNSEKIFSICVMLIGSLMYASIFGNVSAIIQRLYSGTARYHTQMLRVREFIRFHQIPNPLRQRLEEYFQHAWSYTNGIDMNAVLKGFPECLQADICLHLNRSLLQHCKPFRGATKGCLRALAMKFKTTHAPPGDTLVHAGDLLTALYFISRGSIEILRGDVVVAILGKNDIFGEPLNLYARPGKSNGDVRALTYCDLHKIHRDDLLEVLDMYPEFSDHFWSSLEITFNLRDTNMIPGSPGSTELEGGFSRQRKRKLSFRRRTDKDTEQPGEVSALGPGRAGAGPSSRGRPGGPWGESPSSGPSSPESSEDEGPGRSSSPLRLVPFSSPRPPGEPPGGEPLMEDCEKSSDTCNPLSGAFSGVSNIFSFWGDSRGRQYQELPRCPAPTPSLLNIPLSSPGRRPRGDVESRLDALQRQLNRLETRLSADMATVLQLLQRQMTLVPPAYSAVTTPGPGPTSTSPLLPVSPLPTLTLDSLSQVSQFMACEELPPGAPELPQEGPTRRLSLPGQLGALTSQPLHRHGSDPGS

| SMILES | hERG current change (%, negative = inhibition) at 10uM |
| --- | --- |
| CC(Sc1cccc[n+]1[O-])C(=O)Nc1cccc(S(=O)(=O)N2CCOCC2)c1 (centres unmarked) | 13.6% |
| Cn1c(=O)c2c(ncn2Cc2ccc(Cl)c(Cl)c2)n(C)c1=O | -0.364% |
| COC(=O)CC1Oc2ccccc2N(Cc2ccc(C)cc2)C1=O (centres unmarked) | -13.5% |
| Cc1ccc(-c2nc3cc(C)ccc3o2)cc1 | 13.2% |
| COC(=O)N[C@@H]1C[C@H]2[C@@H]3CC[C@H]4C[C@@H](OC)CC[C@]4(C)[C@H]3CC[C@]12C | 5.72% |
| COc1ccc(C(C(=O)NC(C)(C)C)N(C(=O)Cn2nnc3ccccc32)c2cccc(C(C)=O)c2)cc1O (centres unmarked) | -7.64% |
| CC(=O)c1c(N)[nH]c(-c2ccccc2)nc1=S | 15.7% |
| COc1ccc(C(=O)Nc2ccc(-c3ccc(NC(=O)c4ccc(OC)cc4)c(OC)c3)cc2OC)cc1 | 8.52% |
| O=C(Nc1nc(-c2ccccc2)cs1)c1cccs1 | -19.1% |
| CCOC(=O)c1sc(NC(=O)c2cc(-c3cccc(O)c3)on2)c(C(=O)OCC)c1C | 17.8% |
| CC(=O)Nc1ccc(OCCC[n+]2cccc(C(=O)[O-])c2)cc1 | 12.5% |
| COC(=O)c1c(C)c[nH]c1C | 13.4% |
| COc1ccc(C(=O)CSc2nnc(-c3cc(C)cc(C)c3)o2)cc1 | 15.7% |
| CCOc1ccc(NS(=O)(=O)c2cc(C(=O)NCCCN3CCOCC3)ccc2C)cc1 | -1.83% |
| CC(C)NCCCCOc1cccc(Br)c1.O=C(O)C(=O)O | -25.8% |
| O=C(C1CCCN(S(=O)(=O)c2cccc3nsnc23)C1)N1CCN(c2ccccn2)CC1 (centres unmarked) | -50.2% |
| CCCOc1ccc(-c2c(C(=O)N/N=C/c3ccccc3OCC)nnn2-c2nonc2N)cc1 | 22.7% |
| Cc1ccc2c(c1)N(N=O)CCC2 | 1.2% |
| Cc1ccc([N+](=O)[O-])cc1-c1ccc(/C=N/NC(=O)c2cc3c(ccc4ccccc43)o2)o1 | 28.7% |
| COc1cc(OC)cc(-c2c(-c3ccc(F)cc3)c3cc(-c4cnc(OC)nc4)ccc3n2C)c1 | 6.62% |
| COc1ccc(/C=C2\SC(=S)N(CCCCCC(=O)Nc3cc(C)on3)C2=O)cc1OC | 30.5% |
| O=C(NC(=S)Nc1ccc(-c2nc3ncccc3o2)cc1)c1ccccc1F | 14.5% |
| O=C1c2cccc3cccc(c23)C(=O)N1CC1CCCO1 (centres unmarked) | 24.5% |
| N#Cc1ccc(CSc2ncnc3c2cnn3Cc2ccccc2)cc1 | 12.3% |
| CN(C)CCN(C(=O)CN1C(=O)c2ccccc2C1=O)c1nc2cc3c(cc2s1)OCCO3.Cl | -53.8% |
| COC(=O)c1sc(NC(=O)COc2ccccc2C)nc1C | -6.1% |
| CS(=O)(=O)N1CCN(c2ccccc2NC(=O)c2ccc([N+](=O)[O-])o2)CC1 | -25.2% |

| SMILES | hERG current change (%, negative = inhibition) at 10uM |
| --- | --- |
| Cn1cc(CN(CCO)Cc2cccs2)c(-c2ccccc2F)n1 | 2.43% |
| Cc1ccccc1-c1nc(CN2CCC(C(=O)N3CCN(c4ccccn4)CC3)CC2)c(C)o1 | -62% |
| Cn1c(N)c(C(=O)COC(=O)COc2ccccc2C#N)c(=O)n(C)c1=O | -23.2% |
| CC1=C(C(=O)Nc2ccccc2)C(c2ccc(Cl)cc2)n2c(s/c(=C/c3cccc(OCC(=O)O)c3)c2=O)=N1 (centres unmarked) | 4.87% |
| CC(C)CN1C(=O)c2ccc(C(=O)Nc3c[nH]c(=O)[nH]c3=O)cc2C1=O | 25.7% |
| COC(=O)c1cc2cc(OC)ccc2n1C | 0.821% |
| Cc1ccc(-n2c(SCC(=O)NNC(=S)Nc3ccccc3)nc3ccccc3c2=O)cc1 | 9.45% |
| COc1ccc(OC)c(-c2oc3ccccc3c(=O)c2O)c1 | -2.07% |
| COc1ccccc1N1CCN(C(c2cccs2)C(C)NC(=O)c2cccs2)CC1 (centres unmarked) | -8.54% |
| CN(CC(=O)NCc1ccncc1)S(=O)(=O)c1ccc(F)cc1 | -0.77% |
| CCOc1ccc(NC(=O)Nc2ccc3c(c2)N(C)C(=O)CS3)cc1 | -2.52% |
| CCOc1ccc(NCc2nnc(SCc3ccccc3Cl)n2-c2ccccc2)cc1 | -18.2% |
| CCOC(=O)C1=C(C)N(CCO)C(=O)NC1c1cccc(O)c1 (centres unmarked) | 18.8% |
| Cc1cccc(C)c1OCC(=O)Nc1cccc(C(=O)O)c1 | 5.24% |
| COc1ccc(C(=O)Nc2cc3c(cc2OC)CCCC3)cc1Br | 12.9% |
| CCN(CC)CCCn1c2c(c(SCC(=O)Nc3cccc4ccccc34)nc1=O)CCC2 | -56.6% |
| COc1ccc(NS(=O)(=O)c2cccc(C(=O)N3CCCC3)c2)cc1 | 2.23% |
| O=C(CC1(C(F)(F)F)OCCO1)Nc1ccc2c(c1)OCO2 | -2.24% |
| Cc1cc(Cl)ccc1NC(=O)CCC(=O)N/N=C/c1cc([N+](=O)[O-])ccc1O | 0.318% |
| Cc1ccc(-n2c(N)c(C(=O)N3CCOCC3)sc2=S)c(C)c1 | -24.5% |
| CC(C)CC(NC(=O)C1CCCCC1)C(=O)N1CCN(c2ccccn2)CC1 (centres unmarked) | -19.7% |
| COc1ccc(-c2cc(=O)[nH]c(NCc3ccccc3)n2)cc1 | -1.24% |
| Cc1ccc(NS(=O)(=O)c2cccc(C(=O)OCC(=O)NCc3ccco3)c2)cc1 | -34.1% |
| C/C(=N\Nc1nccnc1Cl)c1c(F)c(F)c(F)c(F)c1F | -20.6% |
| CC(C)(C)C(=O)[C@@H]1[C@@H]2C(=O)N(C3CCCCC3)C(=O)[C@@H]2[C@H]2c3ccccc3C=CN12 | -14% |
| Cc1ccc2c(cnn2C(=O)CCC(=O)NC2CCCCC2)c1 | -3.77% |
